According to ChEMBL document CHEMBL1201862, “PubChem BioAssay data set” (2004):
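Test compounds were applied to cells in 96-well plates for 48 hours at 5 doses. Here, GI50 denotes the concentration required for 50% inhibition of growth.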 The source made the active and inactive calls. Rule as the data show it: active = GI50 up to about 1.1 µM and inactive = higher.

Tested on: NCI-H322M
Experiment: growth of human tumour cells (NCI), 48 h

SMILES | GI50
C[N+]1(C)C/C(=C\c2ccccc2)C(=O)/C(=C/c2ccccc2)C1 | inactive: > 100 µM
COc1cc(Cc2cnc(N)nc2N)cc(OC)c1OCCCNc1ccc([N+](=O)[O-])cc1 | inactive: 19.1 µM
CC(C)(C)OC(=O)NC1CC=CCC1NC(=O)OC(C)(C)C (stereo unspecified) | inactive: > 100 µM
O=C1C(O)=C(CC=C(Cl)Cl)C(=O)c2ccccc21 | inactive: 26.3 µM
Cc1cc(O)nc(NNC(C#N)c2cccc([N+](=O)[O-])c2)n1 (stereo unspecified) | inactive: > 100 µM
O=C1c2cccnc2S(=O)(=O)N1c1ccc(Oc2ccccc2)cc1 | inactive: > 100 µM
N#CC(c1nc2ccccc2s1)c1ncnc(Cl)c1[N+](=O)[O-] (stereo unspecified) | inactive: 15.8 µM
COc1cc(C2SC(=N)Nc3c2c(C)nn3C(=O)c2ccccc2O)cc(OC)c1OC (stereo unspecified) | inactive: > 10 µM
O=C(NNCc1ccc(Cl)cc1)Nc1cccc2ccccc12 | inactive: > 100 µM
COC(=O)c1nc(NC#N)nc(O)c1C | inactive: > 100 µM
C=CCCON(C(=O)OC(C)(C)C)C(C)(C)C | inactive: > 100 µM
Clc1ccc(CSCCc2ccncc2)cc1Cl | inactive: 28.2 µM
O=C(c1ccncc1)C1C(=O)c2ccccc2C1C1(O)c2ccccc2CC1C(O)c1ccncc1 (stereo unspecified) | inactive: 43.7 µM
CCN(CC)C(=O)Cn1c2c(c3ccccc31)CCCC2 | inactive: > 100 µM
CCOC(=O)C(NC(=O)Nc1ccc(Cl)c(Cl)c1)C(F)(F)F (stereo unspecified) | inactive: > 100 µM
CN1CN(c2ccccc2)C2(CCN(Cc3nc4ccccc4s3)CC2)C1=O | inactive: 18 µM
O=C(Cc1nc2ccccc2s1)C(=O)Nc1ccc(Cl)cc1 | inactive: > 100 µM
CC1(C)CC(=O)c2c(nc3c(ccc4ccccc43)c2-c2ccc(NC(=O)CCCC(=O)Nc3ccc(-c4c5c(nc6c4ccc4ccccc46)CC(C)(C)CC5=O)cc3)cc2)C1 | inactive: > 100 µM
C=C1C(=O)OC2CC(C)C3CC(O)OC(OCC)C3(C)CC12 (stereo unspecified) | inactive: 25.4 µM
CC(C)(C)OC(=O)NC(Cc1ccc(O)cn1)C(N)=O (stereo unspecified) | inactive: > 100 µM
OC(CC(c1ccccc1)c1ccc(Cl)cc1)c1ccc(Cl)cc1 (stereo unspecified) | inactive: 36.6 µM
O=C(Nc1ccc(Cl)c(Cl)c1)C(=O)Nn1c(S)nc2ccccc2c1=O | inactive: > 100 µM
Cc1c(C(=O)C/C(=N/NC(=O)C[N+](C)(C)C)C(=O)Nc2ccc(Cl)cc2)[n+]([O-])c2ccccc2[n+]1[O-] | inactive: > 100 µM

SMILES | GI50
Cc1cc(C)c(C[C@H]2COC(=O)[C@]2(O)Cc2c(C)cc(C)cc2C)c(C)c1 | inactive: 19.2 µM
CCOCCOCCOCc1nc(C#N)c(N)o1 | inactive: > 100 µM
CCCCCC(=O)Cc1cc(OC)cc2c1C(=O)Oc1cc(O)c(C(=O)O)c(CC(=O)CCCCC)c1O2 | inactive: 54.2 µM
CCOP(=O)(C=C=C(C)C)OCC | inactive: > 100 µM
NC(=S)N1N=C2c3ccccc3CC[C@H]2[C@@H]1c1cccs1 | inactive: 92.3 µM
O=C1c2cc(-c3ccccc3)cnc2S(=O)(=O)N1c1ccc(Br)cc1 | inactive: 57.4 µM
C[C@@]1(CO)[C@H](O)CC[C@@]2(C)[C@H]1CC[C@H]1C[C@@H]3C[C@@]12CC[C@@]3(O)COC(=O)CN | inactive: 63.4 µM
Nc1ccc2ccc(-c3ccc[nH]3)nc2n1 | inactive: > 100 µM
CO[C@@H]1C[C@H]2[C@@H]3CC[C@H]([C@@H](C)COC(C)=O)[C@@]3(C)CC[C@@H]2[C@@]2(C)CC[C@H]3C[C@]312 | inactive: 18.9 µM
O=C1C2CCN(CC2)C1CN1CCOCC1 (stereo unspecified) | inactive: 16.6 µM
S=C(N/N=C(/c1ccccc1)c1ccccn1)N1CCCCC1 | inactive: 1.19 µM
O=C(CC/C=C(/CS(=O)(=O)c1ccccc1)S(=O)(=O)c1ccccc1)c1ccccc1 | inactive: > 100 µM
S=C1SCC2CCCN12 (stereo unspecified) | inactive: > 100 µM
Oc1ccc(Cl)cc1/N=N\c1c(O)ccc2ccccc12 | inactive: > 100 µM
O=C1C(Cl)=C(N2CCN(CCOCCO)CC2)C(=O)c2c(O)ccc(O)c21 | inactive: 1.61 µM
C=C1C(=O)OC2C1CC[C@H](C)C1(O)C(O)CC(=O)[C@@]21C (stereo partly specified) | inactive: 23.9 µM
COC(=O)[C@@]1(C(C)CC(=O)O)CCCCC1=O (stereo partly specified) | inactive: > 100 µM
NC(=O)N1N=C2c3ccccc3CC[C@@H]2C1c1ccccc1 (stereo partly specified) | inactive: > 100 µM
FC(F)(F)c1ccc2c(c1)nc(Cc1ccc(Cl)c(Cl)c1)n2CC1CCCN2CCCCC12 (stereo unspecified) | inactive: 13.6 µM
COc1cccc(-c2cc(O)c3cc(N)ccc3n2)c1 | inactive: 12.6 µM
CO[C@H]1C[C@H](O[C@H]2CC[C@]3(C=O)[C@H]4CC[C@]5(C)[C@@H](C6=CC(=O)OC6)CC[C@]5(O)[C@@H]4CC[C@]3(O)C2)O[C@H](C)[C@H]1O[C@@H]1O[C@H](CO)[C@@H](O)[C@H](O)[C@H]1O | active: 1.57e-05 µM
COc1ccc(-c2cc(=O)c3ccc(O)cc3o2)c(OC)c1OC | inactive: > 100 µM
Cn1cnnc1Sc1c([N+](=O)[O-])ncn1C | inactive: > 100 µM
